Source: PubChem BioAssay AID1346428 (National Center for Advancing Translational Sciences (NCATS), 2018)
Values joined by “and” are separate entries in the source; they are usually repeats but may differ in a detail not shown here. Equal entries are not always repeated. The campaign covered roughly 48,000 compounds. About 1,200 (2.5%) were called active. Inconclusive results (about 2%) are left out.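 The calls were made as follows: active = activation of at least 60% and not above a set upper limit (about 1 call in 100 departs from these limits); inconclusive = activation of 40% to 60%, or above that upper limit; inactive = activation under 40%.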 This is one part of the list.

molecular target: Probable G-protein coupled receptor 32 (Homo sapiens) (UniProt O75388); test: qHTS for Agonists of Human Resolvin D1 Receptor DRV1; conditions: CHO-K1 GPR32 beta-arrestin PathHunter luminescence, 90 min; at 76.9 µM; stronger effect = higher value; zero percent set by DMSO-only wells
UniProt O75388, sequence (O75388 whole entry, looked up): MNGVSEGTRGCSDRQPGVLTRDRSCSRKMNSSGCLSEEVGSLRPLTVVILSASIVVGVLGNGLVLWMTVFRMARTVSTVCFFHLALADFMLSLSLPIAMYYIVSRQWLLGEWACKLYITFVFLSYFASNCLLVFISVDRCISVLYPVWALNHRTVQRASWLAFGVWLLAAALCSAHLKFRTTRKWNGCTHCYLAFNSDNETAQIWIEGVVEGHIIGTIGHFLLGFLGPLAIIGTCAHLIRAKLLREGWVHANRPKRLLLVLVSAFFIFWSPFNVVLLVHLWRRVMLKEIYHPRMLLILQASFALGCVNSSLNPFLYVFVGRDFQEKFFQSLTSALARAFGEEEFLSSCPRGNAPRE
In short: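 Using DMSO wells as EC0, agonist-induced signal was taken as chemiluminescence from beta-Gal reconstituted upon beta-arrestin recruitment to GPR32 in CHO-K1 cells after 90 min compound treatment.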

Structure (SMILES) | activation
Cc1ccccc1Cn1c(=O)n(CCc2ccccc2)c(=O)c2ccccc21 | inactive: 6.72%
Cc1cc(N2CCCCC2)nc2ccc(NC(=O)/C=C/c3ccccc3Cl)cc12 | inactive: -22.8%
Cn1nc(C(=O)NCc2ccc(Cl)cc2)c2c1-c1ccccc1SC2 | inactive: -7.1%
CCCCC(CC)CNC(=O)c1ccc2c(=O)n(Cc3ccc(OC)cc3)c(=O)[nH]c2c1 (configuration not stated) | inactive: -5.13%
COc1ccc(CNC(=O)Cc2c(C)c3c(cc(C)c4c(C)c(C)oc43)oc2=O)cc1 | inactive: -2.82%
CCSc1ncc(Cl)c(C(=O)Nc2nc3ccc(OC)cc3s2)n1 | inactive: -6.97%
Cc1cc(=O)n2nc(N3CCC(C(=O)Nc4ccc(C)c(Cl)c4)CC3)sc2n1 | inactive: 5.73%
Cc1ccc(N(Cc2cccs2)C(=O)c2ccc(Br)o2)cc1 | inactive: -28.1%
Cc1ccc(O)c(N=Nc2ccccc2)n1 | inactive: -0.291%
CCc1nonc1NC(=O)c1oc2ccccc2c1C | active: 65.5%
COc1ccc(CNC(=O)CCS(=O)(=O)c2ccc3c(c2)oc(=O)n3C)cc1 | inactive: 1.88%
Cc1ccc(CNC(=O)c2ccc3c(O)c(S(=O)(=O)c4ccccc4)c(=O)[nH]c3c2)cc1 | inactive: 6.95%
CCOC(=O)N1CCC(NC(=O)c2ccc3c(c2)N(Cc2ccc(F)cc2)C(=O)c2ccccc2S3(=O)=O)CC1 | inactive: -28.6%
CCOc1ccc(NC(=O)C(NS(=O)(=O)c2ccc3c(c2)CCN3C(C)=O)C(C)C)cc1 (configuration not stated) | inactive: -2.11%
O=C(CSc1nc2ccccc2nc1Cc1ccc(Cl)cc1)NCCc1ccccc1 | inactive: -10.4%
CCOc1ccccc1NC(=O)c1nnn(CC(=O)Nc2ccc(OC)c(OC)c2)c1N | inactive: -7.34%
CC(=O)c1ccc(N2CCN(S(=O)(=O)c3ccc4[nH]c5c(c4c3)CCCC5)CC2)cc1 | inactive: -5.85%
O=c1c2c(-c3ccc(Cl)cc3)ccnc2[nH]n1-c1ccccc1 | inactive: 18%
O=C(NCCC1=CCCCC1)c1ccc2c(c1)ncn2-c1ccc(F)c(F)c1 | inactive: -15%
CC(=O)Nc1cccc(NC(=O)c2c(-c3ccccc3)c(-c3ccccc3)nn(C)c2=O)c1 | inactive: -12.6%
CCCN(CCC)C(=O)CSc1nc2sc3c(c2c(=O)n1-c1ccccc1)CCN(C(C)=O)C3 | inactive: -5.88%
CCc1ccccc1NS(=O)(=O)c1ccc2c(c1)OCC(C(=O)N1CCCC1)O2 (configuration not stated) | inactive: 0.0187%
CCOCc1cc(CN2CCN(c3cccc(Cl)c3)CC2)c(O)c2ncccc12 | inactive: 0.9%
C=Cc1c(C)c2cc3[nH]c(cc4nc(cc5nc(cc1[nH]2)C(C)=C5CCC(=O)O)C(CCC(=O)O)=C4C)c(C)c3C=C | inactive: 0.946% and inactive: -10.3%
COc1ccc(OC)c(C2c3c(oc4ccc(C)cc4c3=O)C(=O)N2CCCN(C)C)c1 (configuration not stated) | inactive: -11.9%
O=C(NCc1cccc(F)c1)c1cccc(NC(=O)c2nsc3ccccc23)c1 | inactive: -0.929%

Structure (SMILES) | activation
CCc1ccc(Nc2nc(N)nc(CSc3nc4ccccc4s3)n2)cc1 | inactive: 34.8%
CCN(Cc1ccccc1)Cc1c(O)ccc2c(=O)c(-c3ccccc3Cl)c(C(F)(F)F)oc12 | inactive: -14.1%
Fc1ccc(-c2cn3cc(Cc4ccc(Cl)cc4)sc3n2)cc1 | inactive: 15.7%
CCOc1ccc(-c2nnc(SCC(=O)NCc3ccc(C)cc3)nc2-c2ccc(OCC)cc2)cc1 | inactive: -15.7%
CCC(CC)C(=O)Nc1cccc(-c2nc3ccccc3s2)c1 | inactive: -3.61%
Cc1cccc(-n2ncc3c(NC4CCCC4)ncnc32)c1 | active: 114%
COc1cccc(CNC(=O)C2CCN(c3nnc(-n4c(C)ccc4C)s3)CC2)c1 | inactive: -19.1%
CCc1ccc(-n2nc3ccc(NC(=O)c4ccc(C#N)cc4F)cc3n2)cc1 | inactive: 27.5%
CCOc1ccccc1C1CC(=O)Oc2c1c(=O)n(C)c1ccccc21 (configuration not stated) | inactive: -1.97%
Cc1ccc(Cl)cc1NC(=O)Cn1c(=O)c2ccccc2n2nncc12 | inactive: 1.62%
CCC(C(=O)Nc1cc(-c2nc3cccnc3s2)ccc1C)c1ccccc1 (configuration not stated) | inactive: -17.8%
CC1=C(C(=O)Nc2ccc(C)cc2C)C(c2ccccc2)n2ncc(C(=O)Nc3ccccc3)c2N1 (configuration not stated) | inactive: -15.1%
CCOC(=O)c1c(-c2ccccc2)csc1NC(=O)c1cc(-c2ccc(Cl)cc2)on1 | inactive: -0.28%
Cc1ccccc1-c1nc2cc(NC(=O)COc3ccc(F)cc3)ccc2o1 | inactive: 16.2%
Cc1c(CC(=O)NCCc2ccc(Cl)cc2)c(=O)oc2c(C)c3occ(C(C)(C)C)c3cc12 | inactive: -20.2%
Cc1ccc(NC(=O)C2CCCN(S(=O)(=O)c3cccc4cccnc34)C2)c(C)c1 (configuration not stated) | inactive: -23.9%
COC(=O)c1ccc2c(=O)n(CCCCCC(=O)N3CCN(c4ccc(OC)cc4)CC3)c(=O)[nH]c2c1 | inactive: -28.5%
CCOC(=O)c1sc(NC(=O)c2cc(-c3ccc(F)cc3)on2)c(C(=O)OCC)c1C | inactive: -4.43%
CCOc1ccc(CNC(=O)c2ccc(Sc3ccc(Cl)cc3)c(NC(C)=O)c2)cc1OC | inactive: -11.6%
COC(=O)C1=C(C)NC(C)=C(C(=O)OCCN2CCN(C(c3ccccc3)c3ccccc3)CC2)C1c1cccc([N+](=O)[O-])c1 (configuration not stated) | inactive: -31.1%
CCS(=O)(=O)c1nc(S(=O)(=O)c2ccc(Cl)cc2)c(NCc2ccccc2Cl)s1 | inactive: -12.4%
O=C(Nc1ccccc1C(=O)OCc1cc(=O)n2c3c(sc2n1)CCCC3)c1cccc(Cl)c1 | inactive: -21%
CCc1ccccc1NC(=O)NCc1ccc2c(c1)CCN2C(=O)c1ccccc1 | inactive: -23.8%
COC(=O)c1c(-c2ccc(Cl)cc2)noc1N1CCN(c2cccc(C(F)(F)F)c2)CC1 | inactive: 2.5%
O=C(CSc1nccn1Cc1ccccc1)NCc1ccccc1Cl | inactive: -1.69%
CCCn1ccc2c(OCC(=O)NCc3ccccc3Cl)cccc2c1=O | active: 68.8%
